{"source": "PubChem BioAssay AID488969", "about": "(Vanderbilt High Throughput Screening Facility, 2010)", "note": "Over roughly 110,000 compounds, “z-score” has its median near -0.1; the highest 2% begin near 2. This is one part of the list."}
{"target": "Metabotropic glutamate receptor 8 (Rattus norvegicus) (UniProt P70579)", "sequence (P70579 whole entry, looked up)": "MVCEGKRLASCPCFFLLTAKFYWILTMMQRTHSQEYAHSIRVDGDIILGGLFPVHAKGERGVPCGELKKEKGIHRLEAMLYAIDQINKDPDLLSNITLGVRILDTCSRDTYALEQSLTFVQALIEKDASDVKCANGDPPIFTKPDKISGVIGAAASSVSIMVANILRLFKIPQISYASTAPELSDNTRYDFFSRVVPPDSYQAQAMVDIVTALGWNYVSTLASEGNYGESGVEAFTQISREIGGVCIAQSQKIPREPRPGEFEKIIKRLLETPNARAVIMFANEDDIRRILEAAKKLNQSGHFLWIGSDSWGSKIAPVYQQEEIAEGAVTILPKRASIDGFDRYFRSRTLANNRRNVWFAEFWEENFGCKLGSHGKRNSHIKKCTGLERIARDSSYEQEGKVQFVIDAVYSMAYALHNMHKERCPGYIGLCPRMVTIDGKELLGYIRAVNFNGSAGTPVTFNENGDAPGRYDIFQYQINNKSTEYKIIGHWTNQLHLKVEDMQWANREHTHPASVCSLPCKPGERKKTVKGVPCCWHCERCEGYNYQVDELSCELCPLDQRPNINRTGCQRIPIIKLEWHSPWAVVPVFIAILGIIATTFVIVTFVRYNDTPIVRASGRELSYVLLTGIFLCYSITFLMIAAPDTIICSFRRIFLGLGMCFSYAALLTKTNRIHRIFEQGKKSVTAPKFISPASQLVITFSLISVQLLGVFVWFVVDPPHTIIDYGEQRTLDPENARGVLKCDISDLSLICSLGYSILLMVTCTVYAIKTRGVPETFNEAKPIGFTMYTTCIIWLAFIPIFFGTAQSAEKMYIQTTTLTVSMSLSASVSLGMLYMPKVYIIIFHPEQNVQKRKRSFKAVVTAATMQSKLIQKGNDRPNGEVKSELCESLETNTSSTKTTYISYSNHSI", "experiment": "rat mGluR8 modulators via GIRK flux, primary screen, cell-based, thallium flux, HTS (AID 488969)", "conditions": "HEK293 rat mGluR8, GIRK (G protein-gated inwardly rectifying potassium channel) thallium flux, FluoZin2; at 10 µM; stronger effect = higher value; submaximal glutamate (EC20) added with thallium"}
{"compound": "COc1ccc(/C=N/Nc2ncnc(Cl)c2N)cc1OC", "z-score": 0.241}
{"compound": "CCC(=O)N1CCN(CCN=CC2=C(O)CC(c3cccs3)CC2=O)CC1", "note": "(stereo not given)", "z-score": -0.433}
{"compound": "Cc1cc(C)c(C(N)=O)c(NCCc2ccccc2)n1", "z-score": 0.176}
{"compound": "COc1ccc(N(CC(=O)N/N=C/c2ccc(OC3CSC3)cc2)S(=O)(=O)c2ccccc2)cc1", "z-score": -0.619}
{"compound": "CCC(C)NC(=O)COc1ccccc1[N+](=O)[O-]", "note": "(stereo not given)", "z-score": -0.0414}
{"compound": "CCOc1cccc2cc(C(=O)Nc3ccccc3-c3ccccc3)c(=O)oc12", "z-score": -0.0386}
{"compound": "O=C(NCc1ccccc1)c1cccc(S(=O)(=O)NCc2ccccc2)c1", "z-score": -0.241}
{"compound": "COC(=O)C1=C(C)N(c2cc(Cl)cc(Cl)c2)C(=O)C1", "z-score": 0.0831}
{"compound": "O=C1CCCC2=C1C1(CCCC1)N=C(Nc1nc3ccccc3s1)N2", "z-score": -0.211}
{"compound": "Cn1c(N2CCN(C(=O)Nc3ccc(F)cc3)CC2)nc2ccccc21", "z-score": 0.346}
{"compound": "COc1ccc(CCNC(=O)CSc2nnc(-c3ccccc3)c3ccccc23)cc1OC", "z-score": -0.982}
{"compound": "Cc1c(C(=O)NCc2ccc(F)cc2)c(-c2ccccc2)nn1-c1ccccc1", "z-score": -0.0527}
{"compound": "O=C1CC(SC(=NCc2ccc3c(c2)OCO3)Nc2ccccc2)C(=O)N1c1ccccc1", "note": "(stereo not given)", "z-score": -0.0575}
{"compound": "COc1ccc(CNC(=S)Nc2cccc(C)c2)cc1", "z-score": 0.00773}
{"compound": "COc1ccc(NC(=O)COC(=O)Cn2c(C)nc3ccccc32)cc1OC", "z-score": 0.144}
{"compound": "COc1nc(N)c(S(=O)(=O)c2ccccc2)cc1C#N", "z-score": -0.113}
{"compound": "Cc1nn(Cc2ccc(F)cc2)c2sc(C(=O)Nc3nccs3)cc12", "z-score": -0.146}
{"compound": "C=CCNc1cc(C(F)(F)F)nc(-c2ccccn2)n1", "z-score": 0.279}
{"compound": "CCC(=O)OCCNc1cc(Sc2nccn2C)c2nonc2c1[N+](=O)[O-]", "z-score": -0.991}
{"compound": "O=C(Cn1cnc2ccccc2c1=O)N1CCOCC1", "z-score": -0.245}
{"compound": "CCOc1ccc(C(=O)N/N=C/c2cccc3cccnc23)cc1", "z-score": -0.511}
{"compound": "Cc1ccc(S(=O)(=O)N(C)CC(=O)OCc2nnc(-c3ccccc3)o2)cc1", "z-score": -0.611}
{"compound": "C[C@H](NC(=O)C1(c2ccccc2)CCN(C(=O)[C@H]2CSCN2C(=O)OC(C)(C)C)CC1)C(=O)O", "z-score": 1.86}
{"compound": "CC(CCc1ccccc1)NC(=O)N1CCOCC1", "note": "(stereo not given)", "z-score": -0.733}
{"compound": "CC(=O)Nc1ccc(S(=O)(=O)N2CCN(C(=O)N3CCCCCC3)CC2)cc1", "z-score": -0.0707}
{"compound": "CC(C)[C@H](NC(=O)c1ccccc1)C(=O)OCC(=O)N1CCc2ccccc2C1", "z-score": -0.256}
{"compound": "CCN(CC)CCCNC(=O)Cn1nc(-c2ccccc2)ccc1=O", "z-score": 0.099}
{"compound": "C=CCn1c(NS(=O)(=O)c2ccccc2)c(S(=O)(=O)c2ccc(C)cc2)c2nc3ccccc3nc21", "z-score": -0.584}
{"compound": "N#CNC(=Nc1ccc(F)cc1)SCc1ccccc1", "z-score": -0.0345}
{"compound": "COc1cc(C(=O)Nc2ccc(S(=O)(=O)N(C)c3ccccc3)cc2)cc(OC)c1OC", "z-score": -0.33}
